The source of these data is publication PMC7067772 (2020).

Sequences and labels used below:
B1: myc-tagged pendrin (pCMV-Myc-pendrin) [not stated] / V5-EphA2 (pcDNA3.2-V5-EphA2) [not stated] (parent complex)
chain 1: MAAPGGRSEPPQLPEYSCSYMVSRPVYSELAFQQQHERRLQERKTLRESLAKCCSCSRKRAFGVLKTLVPILEWLPKYRVKEWLLSDVISGVSTGLVATLQGMAYALLAAVPVGYGLYSAFFPILTYFIFGTSRHISVGPFPVVSLMVGSVVLSMAPDEHFLVSSSNGTVLNTTMIDTAARDTARVLIASALTLLVGIIQLIFGGLQIGFIVRYLADPLVGGFTTAAAFQVLVSQLKIVLNVSTKNYNGVLSIIYTLVEIFQNIGDTNLADFTAGLLTIVVCMAVKELNDRFRHKIPVPIPIEVIVTIIATAISYGANLEKNYNAGIVKSIPRGFLPPELPPVSLFSEMLAASFSIAVVAYAIAVSVGKVYATKYDYTIDGNQEFIAFGISNIFSGFFSCFVATTALSRTAVQESTGGKTQVAGIISAAIVMIAILALGKLLEPLQKSVLAAVVIANLKGMFMQLCDIPRLWRQNKIDAVIWVFTCIVSIILGLDLGLLAGLIFGLLTVVLRVQFPSWNGLGSIPSTDIYKSTKNYKNIEEPQGVKILRFSSPIFYGNVDGFKKCIKSTVGFDAIRVYNKRLKALRKIQKLIKSGQLRATKNGIISDAVSTNNAFEPDEDIEDLEELDIPTKEIEIQVDWNSELPVKVNVPKVPIHSLVLDCGAISFLDVVGVRSLRVIVKEFQRIDVNVYFASLQDYVIEKLEQCGFFDDNIRKDTFFLTVHDAILYLQNQVKSQEGQGSILETITLIQDCKDTLELIETELTEEELDVQDEAMRTLAS
chain 2: not shown

Variants of B1 are the subject of one assay. Nature of the assay: co-immunoprecipitation with densitometric quantification; n = 3; parent: 1; read off a plot.
In the case of chain 1 T721M, the ratio to parent was roughly 0.85.
As to chain 1 S666F, the ratio to parent was roughly 1.2.
As to chain 1 V138F, the ratio to parent is roughly 1.2.
In the case of chain 1 H723R, the ratio to parent is roughly 0.77.
chain 1 G497S: the ratio to parent was roughly 0.87.
On the same count and under the same terms, for chain 1 V653A the value was roughly 0.88.
Same read-out and setting: to chain 1 Q446R belongs roughly 0.03.
Turning to chain 1 T416P, the ratio to parent was roughly 1.1.
With chain 1 G672E, the ratio to parent was roughly 0.13.
Still for that read-out and setting: to chain 1 N392Y belongs roughly 0.85; to chain 1 L445W, roughly 0.12; to chain 1 A372V, roughly 0.03.
As for chain 1 L236P, the ratio to parent was roughly 1.3.
Consider chain 1 P123S, for which the ratio to parent was roughly 1.2.

The variants in a further assay derive from B1. Described as above. This is another data set of the same source.
As to chain 1 S166N, the ratio to parent is roughly 1.
As to chain 1 L117F, the ratio to parent is roughly 0.9.
